According to paper PMC10322840, “RAS-independent ERK activation by constitutively active KSR3 in non-chordate metazoa” (Nature Communications, 2023):

Molecular target: T1, human B-RAF, wild type (HA-tagged copy and MYC-tagged copy) (human, UniProt P15056)
T1 construct: Homo sapiens B-RAF; Two differently tagged copies were co-expressed: one carries HA, the other MYC; no chain carries both tags; The construction of the tagged human B-RAF plasmids is not described; also called hB-RAF; human HA-B-RAF; source: HEK293T, transfected (pCS2+), in lysate
Experiment: co-IP; lysates of co-transfected HEK293T cells (200 ul at 0.5 mg/ml); mouse anti-myc 9E10 overnight at 4 °C, Dynabeads Pan mouse IgG 2 h; five washes in 50 mM Tris HCl pH 7.5, 150 mM NaCl, 10% glycerol, 0.2% Triton X100, 1 mM EDTA; blots with rabbit anti-HA and anti-Myc
Details: partners not purified

- fold change of B-RAF co-immunoprecipitated, against wild-type B-RAF: 1.3 fold
B1: human B-RAF R506E (natural protein)
chain: not shown
notes: Homo sapiens B-RAF with R506E in the dimerization interface; also called hB-RAF R506E; source: HEK293T, transfected (pCS2+), in lysate
